Laboratory results taken from the supplement of paper PMC3724861.
The other results are listed elsewhere or left out.

What follows are sequences tested on T1, Caupolican (Caup) homeodomain DNA-binding domain (assay: PBM E-score (8-mer, recovered from the published 9-mer minima) (E-score (dimensionless, -0.5 to 0.5)); Drosophila protein; higher = stronger relative binding preference, active = 0.31 or more).
T1 sequence: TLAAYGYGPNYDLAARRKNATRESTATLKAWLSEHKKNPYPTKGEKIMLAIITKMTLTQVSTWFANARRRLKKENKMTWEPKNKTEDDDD
Method in brief: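 Caup's homeodomain DNA-binding domain (residues 214-303) was made by in vitro transcription and translation and applied at 100 nM to custom-designed protein binding microarrays. Each value is an enrichment score that gives relative binding preference for a short DNA word, with higher meaning stronger. The 8-mer values were recovered from published 9-mer scores, each of which was the minimum of its two constituent 8-mer scores. A cutoff of 0.31 marks candidate sites.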

PBM E-score, active:
TGTGTTAA 0.32
GTGTAATA 0.315
ACATGGTA 0.418

PBM E-score, ≥ -0.0225:
ACCCACGT

PBM E-score, ≥ 0.136:
ATTTCGTA

PBM E-score, ≥ 0.25:
ACTAATTA

PBM E-score, ≥ 0.0611:
TACTGGGA

PBM E-score, ≥ -0.116:
AGCCTCCT

PBM E-score, inactive:
ACCCGAGG -0.193
CTCTTGTC 0.217
AGATTTAG 0.063
TACATTAA 0.28
GCGGGCCA -0.261
ATGGCCAA 0.0326
CCACCGAA -0.0285
ACGCCATC -0.128
CAAGGGCA -0.127
ATGAGACC -0.00544
AATTATCC 0.12
GAGCGACC -0.158
CAAACCCA 0.0324
CTAAGAAG 0.0417
CGGACAAG 0.258
CACTCCCG -0.132
GAAATGTC 0.114
AAGATTGA 0.114
AACACGCC 0.11
GGATAAGA 0.0446
AGTAAATC 0.0588
CGTATCCA -0.0243
GAATAGTA 0.11
CGGGATTA 0.0205
ATAAATGG 0.0743
ATGACGAG -0.00718
ACTGAGAA -0.0461
GCAACCCC -0.229
ACGGACTC -0.103
GCTCTTTA -0.0507
ACATTTAT 0.251
AAACGGTA -0.00331
CTCTCTGC -0.113
ATCGTCAA 0.0884
CACCTTAG -0.0619
AGCATTAG 0.0826
ATCGTTGA 0.0288
CACTTCCG -0.121
CGCGGGAC -0.163
CATGGCAC -0.00797
CGTATCGA 0.099
CGTGGGCA -0.221
CGTGAGAA -0.0591
CCACTCGA -0.0253
AACATTGA 0.243
ACGCAAGT -0.0112
AGTTAGTC 0.0092
GTGCGACA 0.112
AGGAATGA 0.033
CTTTCCAC -0.0147
ACGTATAC 0.11
AATTGCGC -0.00045
CATGGTAA 0.271
ACCCTCGT -0.0438
ACTTCCCG -0.0748
AGTTAGGA 0.0819
GGCTAGTA 0.0954
CGCCTAAC -0.0152
CTACCGAA -0.00615
CTGGAGTC -0.133
TACTGTCA 0.107
AGGATTCA -0.0189
ACCCCCCT -0.293
CAACAATA 0.246
CGAAATGC 0.0102
GCCGATAC -0.0154
CACGCATC -0.0387
ATACTCCG -0.0434
AACGAGTG 0.0806
TAACAGGA 0.205
CGGCGCAG -0.165
AGTACCAC 0.207
ACCCTCAT -0.129
CCGGTTAG -0.116
GCTAGTGA 0.0792
CTTGAGAA 0.045
AACGTTCC -0.0613
GGAGTTTA -0.00351
CCATTGAG 0.00252
ACTTATGG -0.099
GCTGGGTA -0.104
ACAGATAG 0.0925
ATGCACTC -0.0467
ATACCAAA 0.127
CCCCGCCC -0.181
CCGATTTC -0.0954
AACTTCTC 0.0165
AGTCGGAC 0.00218
TACTATGA 0.118
GAGCGCTC -0.263
GTTGGACA 0.201
ATAGAAAG 0.0139
ATACCGCG -0.0685
ATTTATTG 0.101
GATCTCGC -0.112
CAATTCTC 0.0354
ATTGTGTC 0.258
ACTTATAC 0.0474
AAGTAAGT 0.0486
AACGGCAG -0.118
AAAGTTAA 0.102
GTTGCCTA -0.0141
CTGCCGCC -0.315
GACCATCA -0.0209
CAAGTTGA 0.0268
GTTAGCAA 0.154
CACCGACG -0.0869
AGGCGAGC -0.145
GGGTATGA 0.0613
CCAAAAGA 0.0101
AATGGCTA -0.0254
ACCCTAGG -0.105
CCCATAAG -0.102
CGTCGTCC -0.0377
CCCGGCGG -0.328
GCTAACAC 0.196
ACATGGGG 0.209
GGCGAACA 0.115
CAACGCAA 0.0313
ATTCGGCG -0.037
CGTACCTC -0.0804
ATATCCAC 0.095
AAATGAGC 0.0494
GTTGAATA 0.134
AGTGATGC -0.00144
CATGCAGG 0.00917
CTTCGCCC -0.213
GAACAATC 0.12
AAATCAGC 0.0581
AGATTGCT 0.0902
CATCACAC 0.158
CACCATCC -0.0137
GATTCGAA 0.048
GCCGATCA -0.0624
ACCGGGCT -0.152
AGATACAC 0.273
TGGACCAA 0.0123
ATAGACAC 0.259
CCAACCGG -0.183
AGTTCCTC -0.0606
CAACGGAA 0.0457
GCGGACCC -0.31
GTACGGCA -0.0722
ACTAGACG -0.00182
CACAAATG 0.0895
GGTCTGTA -0.0174
ATGGGGGC -0.283
CAGTCCCC -0.245
CACCAAGC -0.0417
AGAGAGCG -0.132
ATATGGGG -0.122
AAGATACA 0.22
AAGAAGTA 0.0627
CAGATTGG -0.133
GTCACGGA 0.0089
CCAGTGAC -0.0369
ACCGGCAT -0.0173
ATATGAAC 0.178
ATTAAAAA 0.111
AGGCAACC -0.121
AAGAATTC -0.0949
GTCTGAAC 0.0504
ACGTTTTC 0.0344
AAGGCGAA -0.165
GTCCGGCA -0.0821
TCAAGTCA 0.0287
AAAGGCGC -0.105
CTCGCACC -0.0853
TCGTGAGA -0.102
AACCAGGC 0.03
AGACTGGG -0.111
ACACCGGG -0.0438
ATAGTTTA 0.162
CTAGACGA -0.144
GCTTGAGA -0.116
AGTACGGC -0.082
AAGTTTAC 0.134
CTATGGAG -0.0365
TATTCTGA 0.105
AGACTGCG -0.129
ACTCGAAC 0.122
GATGACCC -0.0864
ATACCTAC 0.112
GAATTGCA 0.0373
CCAGCTCC -0.13
AAGCAGTC -0.101
TATCCTAA 0.011
ACACCGGC -0.0249
CGACTGTA -0.0324
AGTATGTA 0.284
ATCAAGTA 0.177
TAGTAAAA 0.202
CCATACGA 0.0137
TAGTGCCA -0.0266
ACGCTAGA -0.0749
CTTCACTA 0.0292
GGGAAAGA -0.104
GGGTGCAA -0.0364
TAAAGATA 0.112
AAAATGCG -0.0261
CAAGGCGC -0.105
AAAGACTT 0.036
CTGAGATA 0.0481
ACTGAGCT -0.101
GTCAATGA 0.0907
AAGCATAC 0.176
ACTGCCAC -0.0612
AGTCGTCC -0.0214
ACTTGGTC -0.0293
ACTATGGG -0.0727
CCGCCACG -0.192

PBM E-score, ≥ 0.0411:
CTCCAAGA

PBM E-score, ≥ -0.00578:
ACCGAGGA

PBM E-score, ≥ 0.0384:
AGGCGTAT

PBM E-score, ≥ 0.162:
ATTCATGA

PBM E-score, ≥ 0.179:
ACAATCTG
